Article doi:10.1101/2024.06.30.601371 (bioRxiv, 2024)

Target: the molecule itself
Assay: SEC

B1: Wild-type PKA RIβ Dimerization/Docking (D/D) domain (domain or fragment)
chain: not shown
- stoichiometry N: 2
